The list shows a part of the results.

The test system of the test is T1, C. trachomatis L2/434/Bu expressing GFP (CTL2-GFP).
T1 construct: L2/434/Bu GFP intracellular growth in HeLa cells
Further details: species or system HeLa; C. trachomatis total inclusion area by high-content imaging, normalised to DMSO. The conditions noted are these: total inclusion area; 28.5 h, 10 µM; inhibitor. In a few lines: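 High-content imaging followed the bulk GFP/resorufin measurement: fixed, Hoechst-stained cells were scored for GFP inclusions and host nuclei per well. Total inclusion area and count served as growth proxies, nuclei number as the viability proxy. MIC calculation matched the bulk assay.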
Consider `CCc1nn(CCN2CCCC2)c(=O)c2cc3sccc3n12` [CBK284075], for which the “% of control remaining” value is 91.7311.
The result for `O=C(CCN1C(=O)c2ccccc2C1=O)N(CCO)Cc1ccccc1` [CBK265565] reads 43.3892; that for `CCCc1cc(C2CCCCCN2C(=O)c2c(C)noc2C)no1` (centres unmarked) [CBK284919], 102.571.
As to `CC1=C[C@@H](CO)[C@H](C(C)C)C[C@H]1CC(=O)NCc1cccnc1` [CBK289218], the “% of control remaining” value was determined as 86.9069.
The result for `CCC(C)NC(=O)C1(Cc2cccc(-c3ccc(OC)cc3)c2)CCOCC1` (centres unmarked) [CBK286513] reads 96.8386; that for `COc1ccc(C2CCN(CC(=O)NC3CCCC3)CC2)cc1` [CBK283565], 65.0975; that for `COc1cc(S(=O)(=O)N2CCCN(S(=O)(=O)c3cc(OC)c(Cl)cc3OC)CC2)c(OC)cc1Cl` [CBK266489], 124.832.
`CS(=O)(=O)N1CC2(CCN(Cc3cccc4cccnc34)CC2)c2ccccc21` [CBK136955]: the “% of control remaining” value was 94.5557.
For `COCC(C)NC(=O)CCn1ccc2ccncc21` (centres unmarked) [CBK285172] the value was 101.07; for `O=C(Nc1sccc1C(=O)N1CCOCC1)C(Sc1ccccc1)c1ccccc1` (centres unmarked) [CBK268165], 84.2252.
For `Cc1nc(C)n(CC2CCCN(Cc3cn4ccccc4n3)C2)n1` (centres unmarked) [CBK304028] the value was 63.671.
For `Cn1nnc2cc(C(=O)NCCN3CCCCC3CO)ccc21` (centres unmarked) [CBK307268] the value was 95.8986; for `CNC(=O)c1cnn2c(C)c(Cc3cccnc3)c(C)nc12` [CBK162165], 98.8553; for `COC(=O)[C@H](NC(=O)C1CCN(C(=O)OCc2ccccc2)CC1)c1ccccc1` [CBK081466], 86.3148.
Consider `COc1cc(CN2CCN(Cc3cccc([N+](=O)[O-])c3)CC2)c([N+](=O)[O-])cc1OC` [CBK263111], for which the “% of control remaining” value was 103.971.
For `O=C(NCCCc1nc2ccccc2[nH]1)c1ccccc1` [CBK268429] the value was 118.258.
The result for `COc1ccccc1NC(=O)Cn1cnc2sc(C(=O)NC(C)C)c(C)c2c1=O` [CBK071847] reads 83.4051; that for `Cc1cc(C)cc(C(=O)NC(=S)Nc2sc(C)c(C)c2C#N)c1` [CBK267089], 119.434.
For `CN(C)c1ccc(C=C2CCCC3C2=NN(C(=O)CCC(=O)O)C3c2ccc(N(C)C)cc2)cc1` (centres unmarked) [CBK296065] the value was 117.27; for `c1cc2c(cc1CNc1nnn[nH]1)OCO2` [CBK018783], 65.8296.
Consider `CC(=O)Nc1sc2c(c1C(=O)O)CCc1ccccc1-2` [CBK126812], for which the “% of control remaining” value stood at 0.9737.
The result for `CCOc1cc(NC2CCN(C(=O)C3(CCOC)CC3)CC2)ncn1` [CBK304434] reads 42.462; that for `O=C(c1cccs1)N1CCN(S(=O)(=O)c2cccc([N+](=O)[O-])c2)CC1` [CBK266184], 110.708.
For `Cc1cc(C(=O)CN(C)S(=O)(=O)c2ccc(Cl)c(Cl)c2)c(C)n1C` [CBK295661] the value was 106.514; for `COc1ccc(Oc2nccc(N3CCCN(Cc4ccc(C(F)(F)F)cc4)CC3)n2)cc1OC` [CBK084152], 70.651.
Turning to `O=C(NCc1ccc(-c2csnn2)cc1)c1c(F)cccc1F` [CBK149310], the “% of control remaining” value amounted to 83.5114.
For the compound `CN1CCC(N(C)S(=O)(=O)c2ccc(C(C)(C)C)cc2)C1` (centres unmarked) [CBK059036T], the “% of control remaining” value was found to be 39.2453.
For `O=C(Nc1ccc(S(=O)(=O)N2CCCCC2)cc1)c1ccc(CN2CCOCC2)cc1` [CBK264002] the value was 82.6269; for `CC(=O)NS(=O)(=O)c1ccc(NC(=O)/C=C/c2cccc([N+](=O)[O-])c2)cc1` [CBK300492], 97.713; for `CS(=O)(=O)NCC1CCCN(C(=O)Nc2cccc(Cl)c2)C1` (centres unmarked) [CBK305736], 83.7636.
The result for `CC(CCc1ccc(O)cc1)NC1CCCC1` (centres unmarked) [CBK033987] reads 64.9322; that for `Cc1noc(C)c1CC(=O)NCC(C)(C)N1CCCCC1` [CBK281863], 100.141; that for `O=[N+]([O-])c1ccc(Sc2ccccc2C2=NCCCN2)nc1` [CBK006747C], 94.4582.
Regarding `CC[C@H]1CN(C(=O)c2cccnc2)CC[C@H]1CC(=O)NCc1cccs1` [CBK288773], the “% of control remaining” value came to 75.6951.
For `O=C(c1ccc2c(c1)CCO2)N1CCC(Sc2ccc(-c3ccccc3)cc2)CC1` [CBK131953] the value was 68.8881.
The result for `COc1ccc(Cl)cc1CN(C)C(=O)c1ccc(C)[nH]c1=O` [CBK305794] reads 17.7052.
For `CN1CCC(N2CC[C@@H]3[C@H]2C(=O)NC[C@H](CCC(=O)NCc2ccccc2)N3C)CC1` [CBK289026] the value was 84.4205.
As to `Cc1cccc(CCNC(=O)N2CCC(Cc3cnn(C)c3)C2)c1` (centres unmarked) [CBK305137], the “% of control remaining” value is reported as 79.6046.
As for `COc1cccc(CN2CC[C@@H]3[C@H](C2)[C@@H](c2ccc(F)cc2)CN3C(=O)c2ccccc2)c1` [CBK286292], the “% of control remaining” value came to 74.9281.
On to `NCCNC(=O)c1cc2cc(OC(F)(F)F)ccc2[nH]1` [CBK107368], for which the “% of control remaining” value is 86.8282.
Consider `Clc1ccc(Nc2cncc(-c3cccnc3)n2)cc1` [CBK065234], for which the “% of control remaining” value is listed as 120.289.
The result for `O=C(CSc1nc2ccccc2[nH]1)Nc1ccc(OC(F)(F)F)cc1` [CBK269711] reads 109.258.
In the case of `c1ccc2c(-c3cn4ccnc4c(N4CCOCC4)n3)cccc2c1` [CBK037387], the “% of control remaining” value is 58.6955.
The result for `O=C(c1ccc2c(c1)OCCO2)N1CCN(c2ncccn2)CC1` [CBK144519] reads 86.4085; that for `O=C(O)c1ccc(CNCC(O)c2ccccc2)cc1` (centres unmarked) [CBK287243], 129.321; that for `CN(C)[C@H]1CCCC[C@@H]1OC(=O)c1ccc(C(F)(F)F)cc1` [CBK010550F], 117.129.
For `CCOC(=O)NC(=O)c1ccccc1` [CBK012359], the “% of control remaining” value stood at 77.8227.
With `Cc1sc(NC(=O)COc2ccccc2)c(C(N)=O)c1-c1ccccc1` [CBK268164], the “% of control remaining” value was 105.449.
The result for `Cc1csc2ncc(C(=O)Nc3ccccc3C#N)c(=O)n12` [CBK287458] reads 82.8996; that for `CC(=O)NCCSc1nccc(C(F)(F)F)n1` [CBK105301], 78.5575.
For `CCCSc1scc2c1-c1n[nH]cc1CC2` [CBK017006] the value was 13.0102; for `O=C(CSc1nnc(-c2cccnc2)n1-c1ccc(Br)cc1)Nc1ccc2c(c1)OCO2` [CBK266153], 117.897.
The result for `CCN(CC)c1ccc(CN(CCCN(C)C)C(=O)NCc2ccc(F)cc2)cc1` [CBK159410] reads 88.657.
`COC(=O)[C@@H](C)NC(=O)[C@H]1CN(C(=O)Nc2ccccc2)CCN1C(C)=O` [CBK289627]: the “% of control remaining” value is on record as 121.476.
For `O=C1N=C(NC2CC3CCC2C3)SC12CCCO2` (centres unmarked) [CBK116312] the value was 69.4451; for `O=c1cc(CSc2nnc(-c3ccccc3)[nH]2)nc2[nH]cnn12` [CBK294398], 113.898.
The result for `CC(=O)N1CCCN(C(=O)Cn2cnc3ccc(F)cc3c2=O)CC1` [CBK245206] reads 48.2641; that for `Cn1ncnc1COc1ccc(S(=O)(=O)N2CCCCC2CN)cc1` (centres unmarked) [CBK304313C], 111.047; that for `Cc1cccc(C)c1NC(=O)CSCC(=O)Nc1ccc2ccccc2c1` [CBK263274], 120.98.
As for `CCOc1ccc(Cl)cc1CN(C)C(=O)NC(C)CN1CCOCC1` (centres unmarked) [CBK307170], the “% of control remaining” value is 64.31.
The result for `Cc1nc(CCNC(=O)c2cc(C(C)C)n(C(C)(C)C)n2)cs1` [CBK304082] reads 34.0632.
The result for `COc1cc([N+](=O)[O-])ccc1NC(=O)CS(=O)(=O)Cc1ccccc1` [CBK266704] reads 85.3491; that for `N#C/C(=C\c1cn(-c2ccccc2)nc1-c1ccc(S(=O)(=O)N2CCCCC2)cc1)c1nc2ccccc2c(=O)[nH]1` [CBK266268], 95.0192.
For `O=[N+]([O-])c1ccc(-c2ccc(/N=C/c3ccco3)cc2)cc1` [CBK261639] the value was 89.4218; for `C/C(=N/NC(=O)C(C)CN1CCOCC1)c1ccc(Cl)cc1` (centres unmarked) [CBK016045], 67.096; for `O=c1[nH]c(CSc2nnc(COc3ccccc3)o2)nc2ccccc12` [CBK269869], 102.667.
Take `CCNC(=O)CN1CCN(c2nc(C(F)(F)F)ccc2C#N)CC1` [CBK305515]: the “% of control remaining” value came to 41.5995.
The result for `O=C(CSc1ccc(Cl)cc1)NCCCN1CCOCC1` [CBK009390] reads 41.4355.
As for `CCOc1cccc(N2C(=O)CC(N3CCN(c4ccccn4)CC3)C2=O)c1` (centres unmarked) [CBK262829], the “% of control remaining” value amounted to 98.2287.
In the case of `Cc1nn(CC(=O)N(C(C)C)C(C)C)c(=O)c2cc3occc3n12` [CBK283655], the “% of control remaining” value amounted to 83.4472.
The result for `Cc1cc(NS(=O)(=O)c2ccc(Oc3ccccc3)cc2)n(C)n1` [CBK067249] reads 106.136.
For `O=C(NCCC1=CCCCC1)Nc1ccc2ccccc2c1` [CBK044195] the value was 90.6713.
For `O=C(c1ccccc1)c1ccc(S(=O)(=O)N2CCCN(Cc3c[nH]nc3-c3ccccc3)CC2)cc1` [CBK062773] the value was 71.6682.
For the compound `O=C1CC[C@@H](NCc2ccco2)[C@H](c2cc(F)cc(F)c2)N1` [CBK283127], the “% of control remaining” value is reported as 68.5754.
The result for `Oc1nnc(-c2ccc(Cl)c(Cl)c2)n1C1CCCCC1` [CBK074888] reads 93.1431.
For `CN(C)CCCOC(=O)C(C)(c1ccccc1)c1ccccc1` [CBK265325C] the value was 97.6059; for `CCN1CC(C(=O)N2CCCCC2CN(C)C)CC1=O` (centres unmarked) [CBK282056], 78.8659; for `Cc1ccc(-n2c3nc(=O)n(C)c(=O)c-3cc3ccccc32)cc1` [CBK288007], 91.1342.
For `CC1CCN(CN2C(=O)C(=O)c3ccccc32)CC1` [CBK261304] the value was 99.8262; for `Cc1c(C)n2c(SCC(=O)N3CCCC3)nnc2[nH]c1=O` [CBK287686], 90.0791.

The values are drawn from PMC12040169 (PLOS Biology, 2025).
